Assay results from PubChem BioAssay AID1963576 (National Center for Advancing Translational Sciences (NCATS), 2024).
About 60 (0.1%) of roughly 46,000 compounds were called active. Inconclusive results (about 3%) are left out. Calls follow the shape of the dose curve; as a rule, active = well fitted inhibition curve with a large enough effect; inconclusive = small, poorly fitted or top-dose-only effect; inactive = no such curve, though single readings can be large or run the other way. This is one part of the list.

Assay: Primary qHTS assay for Inhibitors of ovarian cancer metastasis using an organotypic tumor microenvironment (TME) model. Also: nearly all actives have a fitted effect of over 65% in size.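 As to activity change, negative = inhibition: plate controls were DMSO wells for no effect and tomatine positive control wells for full effect.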
Conditions: SKOV3ip1-GFP adhesion/invasion on 3D omental model, fluorescence; series mostly up to 45.8 µM; activity change, negative = inhibition: at the top concentration
How it was run: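 qHTS, 4-pt dose (0.36-46 umol/L); SKOV3ip1-GFP, 1,200 cells/well, no FBS; primary omental fibroblast/mesothelial co-culture 48 h pre-grown; 2 h RT + 16 h 37 C; PBS wash, 4% PFA; GFP count 488/509 nm.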

Activity change, negative = inhibition, inactive:
Cc1cccc(OC(C)C(=O)N2CCC(c3nc4ccccc4o3)CC2)c1C (stereo unspecified) -4.23%
CCN1C(C(=O)c2ccccc2)=C(OC(=O)c2ccc(Cl)cc2)c2ccccc2S1(=O)=O -19.4%
CCc1nnc2c3ccccc3nc(Nc3ccc(F)cc3C)n12 -3.5%
CC1CCc2c(sc3nnn(CC(=O)Nc4cccc(C(F)(F)F)c4)c(=O)c23)C1 (stereo unspecified) -10.4%
CCOc1ccc(NCc2cccn2-c2nnc(N3CCC(C(=O)NC(C)c4ccccc4)CC3)s2)cc1 (stereo unspecified) -5.03%
COc1cccc(CN2c3ccccc3-c3nc(SCC(=O)Nc4cccc(C)c4)ncc3S2(=O)=O)c1 -4.59%
COc1ccc(-n2c(=O)c3c4c(sc3n(Cc3ccccc3)c2=O)CCC4)c(OC)c1 -3.07%
CCOc1cccc(NC(=O)CSc2ncc(-c3ccc(Cl)cc3)[nH]2)c1 3.8%
CCn1c(=O)c(=O)n(CC)c2cc(N3CCCCC3)c(NC(=O)c3cccc(OC)c3)cc21 -1.74%
COc1ccc(N2CCN(CC(O)COc3ccc(C)c(C)c3)CC2)cc1 (stereo unspecified) -17.3%
CC(=O)N1c2ccc(S(=O)(=O)NCCc3cccc(C)c3)cc2CC1C (stereo unspecified) -0.471%
CCN(C(=O)c1cc(S(=O)(=O)N2CCCCC2)c[nH]1)c1ccc(OC)cc1 -10.3%
Cc1ccc(NC(=O)CC2Sc3ccccc3NC2=O)c(C)c1 (stereo unspecified) -3.13%
CN(N=O)C(=O)N[C@H]1C(O)OC(CO)[C@@H](O)[C@H]1O (stereo partly specified) -28.4%
C=Cc1ccc(CSc2nc(-c3ccc(Cl)cc3)nc3c2Cc2c(CO)cnc(C)c2O3)cc1 -13.5%
CCOc1ccc(-n2c(-c3ccc(OC)cc3)cc3c2CC(C)(C)CC3=O)cc1 -4.63%
N=c1n(CCO)c2ccccc2n1CCOc1ccc(F)cc1 2.91%
Cc1ccc(C)c(Cn2cc(CCC(=O)NC3CCCCC3)c3ccccc32)c1 13.9%
COc1cc(Cl)c(C)cc1NC(=O)CSCc1nc(-c2ccc(OC)c(OC)c2)no1 2.79%
Cn1c(NCc2ccccc2F)nc2ccccc21 3.87%
COc1ccc(CNC(=O)c2cnn(-c3ccc(C)cc3)c2C2CCN(C(=O)OC(C)(C)C)CC2)cc1 4.62%
CCOc1ccccc1C(=O)N1CCc2cc(OC)c(OC)cc2C1COc1ccc2c(C)cc(=O)oc2c1 (stereo unspecified) -15%
Cc1ccc(-n2ncc3c(Nc4ccc5c(c4)OCCO5)ncnc32)cc1C 3.19%
CC(=O)c1cccc(-n2c(CCC(=O)O)ccc2-c2ccccc2)c1 -2.82%
Cc1ccc(NC(=O)Cn2ccn(Cc3ccc(Cl)cc3)c(=O)c2=O)cc1C -2.89%
CCOC(=O)C1CCN(C(=O)c2ccc3c(c2)sc2nc(-c4ccc(OCC)cc4)cn23)CC1 -7%
O=C(CSc1ncc(S(=O)(=O)c2ccc(Br)cc2)c(=O)[nH]1)NCc1ccccc1Cl 18.7%
CCN1CCN(C(c2ccc(Cl)cc2)c2c(O)cc(C)n(CCOC)c2=O)CC1 (stereo unspecified) -5.89%
COc1ccc(/C=C(\NC(=O)c2ccccc2)C(=O)NC2CCCCC2)cc1 -3.7%
Cc1ccc(OCCSc2nc3ccccc3n2CCC(=O)O)cc1C -9.52%
CCCCn1cnc2cc(NC(=O)c3cc(OC)c(OC)c(OC)c3)ccc21 12.5%
Cc1cc(C)cc(N(CC(=O)Nc2ccc(C(F)(F)F)cc2)S(=O)(=O)c2c(C)[nH]c(=O)[nH]c2=O)c1 1.4%
COc1ccc(-c2cc(C(=O)Oc3ccc(Cl)cc3)c3ccccc3n2)cc1 -3.66%
CCOc1ccccc1NC(=O)Cn1c(=O)n(Cc2ccco2)c(=O)c2cccnc21 -1.83%
CCc1ccccc1NC(=O)C1=CC(c2ccc3c(c2)OCO3)=NS(=O)(=O)N1C 4.96%
COc1ccccc1C(=O)CC1(O)C(=O)N(CC(N)=O)c2ccccc21 (stereo unspecified) 1.22%
CC(C)c1ccc(S(=O)(=O)Nc2cc3c(cc2NCc2ccccc2)n(C)c(=O)n3C)cc1 -3.03%
CCCC(=O)Nc1c(C(=O)N2CCN(c3ccccc3)CC2)oc2ccccc12 -18.2%
CCC(=O)N1CCc2cc(S(=O)(=O)NC(Cc3ccccc3)C(=O)Nc3ccc(Cl)cc3)ccc21 (stereo unspecified) -12.8%
COc1ccccc1C(=O)N1CCC(c2c[nH]c3ccccc23)(c2c[nH]c3ccccc23)CC1 6.56%
O=C(CN1C(=O)COc2ccc(S(=O)(=O)N3CCCCCC3)cc21)N1CCN(c2cccc(Cl)c2)CC1 -1.6%
O=C(C1COc2cc(S(=O)(=O)Nc3ccc(Cl)cc3)ccc2O1)N1CCCC1 (stereo unspecified) 1.18%
Fc1ccc(-c2nnc(CN3CCN(c4ccccn4)CC3)o2)cc1 -3.77%
COc1ccc(C(=O)c2cn(Cc3ccc(F)cc3)c3c(F)cc(F)cc3c2=O)cc1 -23.3%
Cc1ccc(NC(=O)CSc2nc3ccc(NC(=O)c4cccc(Cl)c4)cc3s2)c(C)c1 3.18%
CCOC(=O)c1ccc(N2C(=O)c3n[nH]c(-c4ccco4)c3C2c2cccc(F)c2)cc1 (stereo unspecified) 1.38%
COc1ccccc1C(=O)Nc1ccc(-c2nc3cc(C)cc(C)c3o2)cc1 0.637%

outcome, inactive:
O=C1C(=O)N(C2CCN(C(=O)c3ccc(F)cc3)CC2)CCN1Cc1ccc(F)cc1
COc1ccc(-c2cc(C(F)(F)F)nc(NCc3ccccc3)n2)cc1OC
CCOC(=O)c1cccc(NC(=O)N2Cc3ccccc3Oc3ncccc32)c1
Cc1oc(-c2ccc(C(=O)N(C)Cc3ccccc3)cc2)nc1CN1CCc2ccccc21
CCOC(=O)c1ccc(-c2ccc(/C=C(\C#N)C(=O)Nc3cccc(C)c3)o2)cc1
Cc1cc(C)cc(OCCOCCn2c(-c3ccc(Cl)cc3)nc3ccccc3c2=O)c1
Cc1cccc(C)c1NC(=O)C1CCN(S(=O)(=O)c2cccc3nsnc23)CC1
COc1ccc(OC)c(Nc2cc(C(=O)NCc3ccccc3)c3ccccc3n2)c1
COc1ccc(-c2nc(SCC(=O)NC3CCCC3)c(-c3ccccc3)[nH]2)cc1OC
Cc1nc2ncnn2c(C)c1CCC(=O)NCc1ccc(Cl)cc1
CCOc1ccc(NC(=O)NC(CC)Cn2nnc3ccccc3c2=O)cc1 (stereo unspecified)
COc1ccc(CCNC(=O)c2cc3cccc4c3n2CC(C)S4)c(OC)c1OC (stereo unspecified)
O=C(CSc1nc(-c2ccccc2)[nH]c1-c1ccc(F)cc1)NC1CCCC1
CC(C)(C)OC(=O)N1CCC(c2c(C(=O)O)cnn2-c2ccc(F)cc2F)CC1
